The results in this text go back to article PMC10726135.

Some of the results follow. At the low end of the ranking the order means little. Measured with an extract: partners may take part in the binding.

The target of this assay is T1, HNF4alpha2 (COS-7 nuclear extract) (UniProt P41235).
T1 sequence: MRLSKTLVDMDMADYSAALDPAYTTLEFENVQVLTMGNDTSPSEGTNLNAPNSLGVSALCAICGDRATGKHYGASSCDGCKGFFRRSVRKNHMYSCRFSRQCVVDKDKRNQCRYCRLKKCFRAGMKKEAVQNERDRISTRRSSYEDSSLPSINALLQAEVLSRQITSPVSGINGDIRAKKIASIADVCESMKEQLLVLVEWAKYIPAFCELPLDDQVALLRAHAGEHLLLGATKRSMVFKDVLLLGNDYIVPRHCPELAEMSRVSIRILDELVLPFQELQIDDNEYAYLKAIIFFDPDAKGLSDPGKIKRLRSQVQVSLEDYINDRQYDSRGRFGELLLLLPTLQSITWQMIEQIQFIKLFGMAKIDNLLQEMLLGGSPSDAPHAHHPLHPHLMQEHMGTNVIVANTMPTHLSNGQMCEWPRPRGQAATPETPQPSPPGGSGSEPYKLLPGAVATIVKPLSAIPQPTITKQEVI
In words: protein-binding microarray. As to conditions: COS-7 nuclear extract on double-stranded Agilent 4x180k PBM; binding buffer, salt, pH and temperature not given; high values mean tight binding; double strand, one strand shown; sequences stand for … in …GCCTAGGGAGATTAGAGTATCGGTCGA
With CCCAAGGAGAGGAGGGAACAGCAAGACTTT, the binding signal (log2 normalized intensity) is -1.14.

Turning to GCTGCTGGGAGGTAGCTCAAAGTCTAACCC, the binding signal (log2 normalized intensity) came out at 2.63.

For the sequence TTCAAAGGGCAAAAGGGCAAAACTGTCACA, the binding signal (log2 normalized intensity) amounted to 3.26.

GGAAAAAAAAACCACTGTGTCACGCACGGT: the binding signal (log2 normalized intensity) is -1.11.

For the sequence TCAAAGGAGGCATTCCTGCAATCAGAGCTG, the binding signal (log2 normalized intensity) was -1.09.

As for ACTCCCACCAGCATGGTGATGCTAGCTACT, the binding signal (log2 normalized intensity) was -1.18.

With CTGGCCTGTTTGATCTGGTTTTTGTTGTTG, the binding signal (log2 normalized intensity) worked out at 2.37.

As for GGGACTAGCCTTATCTCAGATGAGACTTTG, the binding signal (log2 normalized intensity) was determined as 1.7.

In the case of CCTCTGCAACCTTTGCTCTCCCTCCTCTCT, the binding signal (log2 normalized intensity) turned out to be 3.1.

With CAGCTGCAGTGAAATTCTGGCCAACCAGCA, the binding signal (log2 normalized intensity) was -1.11.

On to AAGTTCATTGTAGCCTCAAATTCCTGGGCT, for which the binding signal (log2 normalized intensity) is -1.08.

In the case of AACCATAATGAAATACCACTGCACACATAA, the binding signal (log2 normalized intensity) is -1.06.

For GGAAGGCAAAGTTCAACCCTGAATGTGTGC, the binding signal (log2 normalized intensity) stood at 2.24.

For TTAACCTTTGCTCTCTGAAATGAAGGTCAG, the binding signal (log2 normalized intensity) was 3.65.

As for GTCAAAACTTTGTTTGAGTTCCAAAGTCCA, the binding signal (log2 normalized intensity) came out at 6.99.

Consider AGTGTAAATATTTGAGGACACAAAGTGGAC, for which the binding signal (log2 normalized intensity) came to 2.09.

In the case of GGTCTCTCACCTGGCTTCCCTTTGATCTTT, the binding signal (log2 normalized intensity) was found to be 3.09.

As to GGAGCTCGGCGCCAGGAAGCAATGGCCCTC, the binding signal (log2 normalized intensity) is -1.08.

Consider GCGCTCCCTGTTTAGAATTCTGCCTCCCCC, for which the binding signal (log2 normalized intensity) amounted to 4.96.

As for ATTTAAGACGAGTGGTTTGAGGTCACATAG, the binding signal (log2 normalized intensity) stood at 1.55.

On to GCTCCTGGGCCCAGATATACAAGAAAGAAA, for which the binding signal (log2 normalized intensity) was -0.62.

In the case of GAGAAAATTCTAGATAACTCCAAGATTAGT, the binding signal (log2 normalized intensity) was -1.26.

For the sequence CGCTTGGCTCAGGCCGGTTGGCCAGGTTCC, the binding signal (log2 normalized intensity) is -1.29.

In the case of TGCCTGCCCTCTCCATGCAGACAGTCCCTC, the binding signal (log2 normalized intensity) was -0.326.

As to AAGTAGACAGATCAGAGAGATTTTCACATG, the binding signal (log2 normalized intensity) was -0.547.

TCAGGAGCCCCACAGAGCAAAGGTCATGCA: the binding signal (log2 normalized intensity) was 5.38.

For the sequence TGGAAATGCAAACACCTACATTCAAATCCT, the binding signal (log2 normalized intensity) is -1.15.

Take GACCATCACCACTTCAAGCTTGGTATGCTT: the binding signal (log2 normalized intensity) is -0.749.

For the sequence CGCGAGCACCGCGCGCGCAAAGCGGGGGCG, the binding signal (log2 normalized intensity) was -1.19.

Turning to TCTTTTGATAACTGATCTCTGGCTTGATCC, the binding signal (log2 normalized intensity) is -0.0246.

As to TCTGTCTGAGACCACTTAAGCCTGGAATTC, the binding signal (log2 normalized intensity) was -0.552.

On to CTGGGTGAGCCGCACACCGACTTGCACCAG, for which the binding signal (log2 normalized intensity) is -1.12.

With ACTGTAAACCAGCAGTATCTTTGTGTCACC, the binding signal (log2 normalized intensity) amounted to 0.469.

For CCCACGGTCAGGACTTGATGATTGACACTA, the binding signal (log2 normalized intensity) is -1.01.

Regarding AAGTCTTAGCTCATTTCAGCCTTAACTCAA, the binding signal (log2 normalized intensity) is -1.1.

Turning to GCAGAAGCAGAGAGAAACTTTGGAAGTAGG, the binding signal (log2 normalized intensity) is -1.25.

Regarding TCACGTACCGGCTAGACAAACAGCTTCTGT, the binding signal (log2 normalized intensity) was -1.05.

For the sequence AGCAGGCAGAGGTCAATGTCCACACCCCAG, the binding signal (log2 normalized intensity) came out at 4.6.

With TAAAACACAAATCTCCACAAACATACAACC, the binding signal (log2 normalized intensity) is -1.22.

In the case of CTGCACCTTGAAACCCCTCCTTACAGTGCC, the binding signal (log2 normalized intensity) is 2.34.

On to CTCCTGGATTGCAGGTAAACACAGTGATGG, for which the binding signal (log2 normalized intensity) stood at 1.21.

For the sequence AGCAGGTGACCTTCGATCACCTCAAGAAAG, the binding signal (log2 normalized intensity) was 3.8.

On to AAGTTTGAAAATGCCTTGAACTATTCACTG, for which the binding signal (log2 normalized intensity) is -1.1.

As for AGGGGGAGGAGAGTACTGTCTCTTATCAGC, the binding signal (log2 normalized intensity) was -1.21.

GCCGAGAGCGGCTCGTTGGTCTAGGGGTAT: the binding signal (log2 normalized intensity) was -1.24.

As for AGGCTCCCCTAATCCCTGTGACATTTTCAG, the binding signal (log2 normalized intensity) came out at 1.28.

Take GATAATCACCCGATAAGCTGACCCCAAAAC: the binding signal (log2 normalized intensity) worked out at 4.68.

In the case of TATTTGTTTTCTGTCTTCATCCTGAGAGGG, the binding signal (log2 normalized intensity) was -0.496.

For the sequence TGCAAGGAAATGGATTGCCTCCTAAGGCCT, the binding signal (log2 normalized intensity) was -1.2.

Consider AGACAACCTTTGTTCACAGTGACGTTCTGC, for which the binding signal (log2 normalized intensity) stood at 1.51.

GATCAAAGTTCATTGTAGCCTCAAATTCCT: the binding signal (log2 normalized intensity) came out at 3.55.

As for ATAGCGCCCACACTGCCCATCCCCACTGAA, the binding signal (log2 normalized intensity) worked out at 3.46.

In the case of TAAACAGAAGAAAGGGGCTAGGGCAAAGAT, the binding signal (log2 normalized intensity) was -1.06.

With GGCTGGTTTAACTGACCCAGGGAGAAAGGT, the binding signal (log2 normalized intensity) was -1.1.

As for GATTGTCACAAGACTGTTATCACAGCTGGC, the binding signal (log2 normalized intensity) was -0.883.

As to CAAAGACTAATGCATTCCCAGCAAGTGAAG, the binding signal (log2 normalized intensity) is -1.11.

As to GTCTAAGCTAGTCATAGCTGGGTTTCCAGC, the binding signal (log2 normalized intensity) is -0.824.

Regarding TTATCAGCTGCTAAGTCTTTCCACACAGCC, the binding signal (log2 normalized intensity) was -1.14.

In the case of TGCTTATTTCCCATCAAGGATCAAGGACCT, the binding signal (log2 normalized intensity) was -0.85.

With GAGTTCAAAGGATACAGATAAATAAATCAA, the binding signal (log2 normalized intensity) was -1.07.

Consider GATCCTCATTTCCCCATTCCTAAGTTCCAA, for which the binding signal (log2 normalized intensity) is 1.72.

Take TGGAGAATGGATCTAAGGACAAAGTCCAAG: the binding signal (log2 normalized intensity) came out at 6.12.

AAAATCACACTGGGAATTGGGATGGCAGCT: the binding signal (log2 normalized intensity) is -1.15.

Take GTTGAGGTAGAGGGACACTGATAACATGAG: the binding signal (log2 normalized intensity) is -0.141.

Take CCAGTTTCTCAACAGACCCCTGAATTGGTC: the binding signal (log2 normalized intensity) was 1.85.

As for CAATGTGCTCATCCATAAAATGGGGTAATG, the binding signal (log2 normalized intensity) was 0.755.

Consider AAAGAGAGAGTTAGTTCTGCAAACACCCCT, for which the binding signal (log2 normalized intensity) came to 1.19.

Take TCTCTGAGCAGTGAATGTTGAAGTCCCACG: the binding signal (log2 normalized intensity) was 1.02.

TAACCCCCTTGTCTTCCTCAAATTACAAAA: the binding signal (log2 normalized intensity) is 2.36.

As to CCCAGATGGGCTGGCAGAGGGGATCAAGTG, the binding signal (log2 normalized intensity) was -1.1.

Regarding GAAAACCTTGTCTAAGCCCTTATCAAAAAG, the binding signal (log2 normalized intensity) is -1.1.

With GAGGGCAACCTTTGAACTGGGTCTTAATAA, the binding signal (log2 normalized intensity) stood at 3.53.
